Laboratory results taken from the supplement of paper PMC12217912.
This is one part of the list. The full chains were built here from the parent and the listed change. Inactive controls read about 0.05.

B1: TEV protease; numbered along this chain (parent)
chain: MGESLFKGPRDYNPISSSICHLTNESDGHTTSLYGIGFGPFIITNKHLFRRNNGTLVVQSLHGVFKVKDTTTLQQHLVDGRDMIIIRMPKDFPPFPQKLKFREPQREERICLVTTNFQTKSMSSMVSDTSCTFPSGDGIFWKHWIQTKDGQCGSPLVSTRDGFIVGIHSASNFTNTNNYFTSVPKNFMELLTNQEAQQWVSGWRLNADSVLWGGHKVFMVKPEEPFQPVKEATQL

Variants of: B1
Experiment: raw area under fraction-flipped curve 0-4 h after induction (AUC4h, not background-subtracted), DNA-recorder readout of cleavage of the substrate (dimensionless); higher = more cleavage of the substrate by the protease variant
Conditions: temperature: 34 °C; time window: 0-4 h after rhamnose induction
Method: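 In vivo DNA recorder in E. coli TOP10(DE3) ΔrhaA at 34 °C. Each TEVp single-site mutant (parent TEVp 0) is paired with a single-site variant of the 7-mer TEVs (canonical ENLYFQ|S). The substrate sits between flexible linkers in a Bxb1-sfGFP-TEVs-SsrA fusion, so cleavage stabilises Bxb1 and speeds flipping of a recombination array, read by NGS. The value is the raw area under the fraction-flipped curve over 0-4 h after rhamnose induction (AUC4h), with ≥20 reads per time point. It is not background-subtracted; inactive controls average about 0.047.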
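Further: Bxb1 expression induced with 0.2% (w/v) L-rhamnose at OD600 near 0.5, cultures sampled hourly, flipped fraction per protease–substrate barcode pair counted by paired-end Illumina sequencing.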

| Variant | area with substrate ENAYFQS | area with substrate ENCYFQS | area with substrate ENDYFQS | area with substrate ENEYFQS | area with substrate ENFYFQS | area with substrate ENGYFQS | area with substrate ENHYFQS | area with substrate ENKYFQS | area with substrate ENPYFQS | area with substrate ENQYFQS | area with substrate ENSYFQS | area with substrate ENTYFQS | area with substrate ENIYFQS | area with substrate ENMYFQS | area with substrate ENNYFQS | area with substrate ENVYFQS | area with substrate ENRYFQS | area with substrate ENYYFQS | area with substrate ENWYFQS |
| --- | --- | --- | --- | --- | --- | --- | --- | --- | --- | --- | --- | --- | --- | --- | --- | --- | --- | --- | --- |
| V183E | 0.0517 | 0.0611 | 0.0437 | 0.0449 | 0.0551 | 0.03 | 0.044 | 0.0823 | 0.0511 | 0.0625 | 0.0497 | 0.0639 | – | – | – | – | – | – | – |
| V183F | 0.0505 | 0.0624 | – | 0.0547 | – | 0.0792 | 0.0626 | – | 0.0621 | 0.0717 | 0.0629 | 0.0675 | 0.107 | 0.083 | 0.0711 | 0.0721 | – | – | – |
| M125K | 0.0403 | 0.0596 | 0.0553 | 0.0594 | – | 0.0664 | 0.0587 | 0.0726 | 0.0613 | 0.056 | – | 0.0345 | – | – | – | 0.0748 | 0.0527 | 0.0469 | – |
| I110Q | 0.0493 | 0.0573 | – | 0.0502 | 0.0524 | – | 0.065 | – | – | – | 0.0441 | 0.0455 | – | 0.0551 | 0.0239 | – | – | 0.0619 | – |
| V220A | 0.066 | 0.0566 | 0.0657 | – | 0.0519 | 0.0599 | 0.0567 | 0.0598 | 0.0437 | 0.0593 | 0.0684 | 0.0774 | – | 0.0652 | 0.0606 | 0.0697 | 0.0395 | – | 0.0683 |
| S60Y | 0.0726 | – | 0.068 | 0.0739 | – | – | 0.0593 | 0.0366 | 0.064 | 0.0683 | 0.0596 | – | – | – | – | 0.0746 | 0.0542 | 0.0618 | 0.0793 |
| K120Q | 0.0642 | – | 0.0612 | 0.0556 | 0.066 | 0.0603 | – | 0.0466 | – | – | 0.0627 | 0.0691 | – | – | 0.0729 | 0.0781 | 0.062 | 0.0541 | – |
| W141G | 0.0485 | 0.0555 | – | – | 0.0553 | 0.0532 | 0.0474 | 0.0433 | – | 0.0462 | – | 0.0509 | 0.0588 | – | 0.049 | 0.0598 | 0.0418 | 0.0514 | 0.0588 |
| F38M | 0.052 | 0.0664 | 0.0639 | 0.0613 | 0.0556 | 0.0594 | 0.0629 | 0.069 | – | 0.0578 | 0.0541 | 0.0556 | – | 0.0813 | 0.0639 | 0.0651 | 0.0772 | – | – |
| I19E | 0.0494 | 0.0517 | 0.0498 | 0.0514 | 0.0387 | – | 0.0415 | 0.0363 | 0.0325 | 0.0467 | 0.051 | 0.0028 | 0.074 | 0.0535 | – | 0.055 | 0.035 | – | 0.0372 |
| E108I | 0.0646 | 0.047 | 0.0445 | 0.06 | 0.039 | 0.0592 | 0.062 | 0.0451 | 0.0673 | 0.0564 | 0.0463 | 0.056 | 0.0686 | – | – | 0.0523 | 0.0419 | – | 0.05 |
| S124M | 0.0972 | – | 0.0556 | 0.0556 | 0.059 | 0.0493 | 0.0529 | – | 0.052 | 0.0605 | 0.061 | 0.0621 | 0.13 | – | 0.0508 | 0.0435 | – | 0.038 | – |
| E107S | 0.0674 | 0.0653 | 0.0535 | 0.0683 | 0.0733 | – | 0.0606 | 0.0606 | 0.0605 | 0.0607 | 0.0591 | 0.0593 | 0.109 | 0.0761 | 0.0643 | 0.086 | 0.0485 | – | 0.0112 |
| S17V | 0.0538 | 0.0594 | 0.0547 | 0.0738 | 0.0639 | 0.0583 | 0.0569 | 0.0607 | 0.0848 | 0.049 | 0.0446 | 0.0795 | 0.108 | 0.0669 | 0.0567 | 0.0864 | 0.0489 | 0.0721 | – |
| S17M | 0.0507 | 0.0594 | 0.0594 | 0.0568 | 0.0599 | 0.0622 | 0.0584 | 0.063 | 0.05 | 0.0344 | 0.0679 | 0.0671 | 0.0984 | 0.0806 | 0.057 | 0.0782 | 0.0589 | – | 0.0629 |
| S17H | 0.0715 | 0.0417 | 0.0572 | 0.0522 | 0.0652 | 0.0671 | 0.0598 | – | 0.0618 | 0.0616 | 0.0622 | 0.0518 | – | 0.0921 | 0.06 | 0.0658 | 0.0487 | 0.0671 | – |
| T181Y | 0.0501 | 0.0536 | 0.0763 | – | 0.0555 | 0.0466 | 0.0524 | 0.064 | 0.0688 | 0.06 | – | – | 0.0644 | – | 0.0566 | 0.0529 | 0.0715 | – | – |
| K185E | 0.0909 | 0.0645 | – | 0.052 | 0.0629 | 0.0544 | 0.0467 | – | 0.0549 | 0.0532 | 0.0582 | 0.0959 | 0.157 | – | 0.0548 | 0.086 | 0.054 | 0.0544 | – |
| S130Q | 0.0689 | – | – | – | – | 0.0656 | 0.0691 | – | 0.0619 | – | – | – | – | – | – | 0.0858 | – | – | 0.0497 |
| S130N | 0.0462 | 0.069 | 0.0534 | 0.0524 | 0.0692 | – | 0.0514 | – | – | – | – | 0.0601 | – | – | – | 0.0702 | 0.0893 | 0.0536 | – |
| R106H | 0.0534 | 0.0732 | 0.0846 | – | 0.055 | 0.0718 | 0.0521 | 0.0603 | 0.0743 | 0.0667 | 0.0625 | 0.0622 | 0.141 | – | 0.0611 | 0.0599 | 0.0613 | 0.0629 | 0.0556 |
| R106W | 0.0671 | 0.0614 | 0.0595 | 0.0647 | 0.0679 | 0.0665 | 0.0522 | 0.0565 | 0.0541 | 0.0584 | 0.0689 | 0.0692 | 0.136 | 0.0813 | 0.0652 | 0.0701 | 0.0583 | 0.0624 | 0.0528 |
| T159L | 0.0711 | – | 0.0572 | 0.0633 | – | – | – | 0.0664 | – | 0.0698 | – | 0.0507 | 0.0999 | 0.102 | 0.062 | 0.0964 | – | – | – |
| K148I | 0.0312 | 0.0583 | 0.042 | 0.0574 | 0.0681 | – | – | – | 0.0584 | 0.055 | – | 0.0543 | 0.0937 | – | 0.0751 | 0.063 | – | 0.0994 | – |
| K148F | 0.07 | 0.103 | 0.0629 | 0.0602 | – | – | 0.0582 | – | – | 0.0702 | – | – | – | – | – | – | 0.0479 | – | – |
| N186E | 0.0524 | – | 0.0521 | – | – | 0.0681 | – | – | 0.0412 | 0.0587 | 0.0961 | 0.0653 | 0.117 | 0.082 | – | 0.0747 | – | – | – |
